Results are given in words; binding and its absence hold for the method and conditions named. In cells and extracts the contact can be indirect. Some binding calls cover weakened binding; strength is not graded here. Where a sequence is shown, tags or fusion partners need not be part of it.
What was measured:
GST-YWHAH (1-60) (human) = target: T1, GST-YWHAH (1-60) (human) (UniProt Q04917); test: pull-down; GST-YWHAH constructs or GST alone on glutathione-sepharose, incubated 12 h at 4° with HEK 293 total cell extract expressing PIG-2; washed with NETN (300 mM NaCl, 0.5% NP-40); western blot; only the target purified
T1 sequence: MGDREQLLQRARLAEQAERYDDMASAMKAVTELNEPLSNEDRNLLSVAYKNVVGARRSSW

[1] = target: T2, GST-YWHAH full length (1-247) (human) (UniProt Q04917); test: as above
T2 sequence: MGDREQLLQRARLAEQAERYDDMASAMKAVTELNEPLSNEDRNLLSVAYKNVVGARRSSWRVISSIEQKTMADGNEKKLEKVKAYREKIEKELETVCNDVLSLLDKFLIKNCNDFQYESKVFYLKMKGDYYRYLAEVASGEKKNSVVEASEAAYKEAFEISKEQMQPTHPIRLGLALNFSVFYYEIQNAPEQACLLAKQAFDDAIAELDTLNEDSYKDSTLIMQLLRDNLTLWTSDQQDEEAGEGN

[2] = target: T3, GST-YWHAH (1-100) (human) (UniProt Q04917); test: as above
T3 sequence: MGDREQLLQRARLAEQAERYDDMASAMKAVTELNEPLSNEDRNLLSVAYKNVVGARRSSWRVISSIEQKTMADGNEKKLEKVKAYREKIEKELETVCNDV

GST-YWHAH (1-80) (human) = target: T4, GST-YWHAH (1-80) (human) (UniProt Q04917); test: as above
T4 sequence: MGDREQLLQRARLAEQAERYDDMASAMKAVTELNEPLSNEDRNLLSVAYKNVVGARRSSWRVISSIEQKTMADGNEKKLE

[3] = target: T5, Myc-tagged YWHAH (tyrosine 3-monooxygenase/tryptophan 5-monooxygenase activation protein, eta polypeptide; 14-3-3 eta), full length (human) (UniProt Q04917); test: co-IP; HEK 293 co-transfected with FLAG-PIG-2 and YWHAH-Myc-His; RIPA lysate; IP with anti-Myc or anti-FLAG mAb and protein A-Sepharose, 4 h at 4°C; blot with the other antibody
T5 sequence: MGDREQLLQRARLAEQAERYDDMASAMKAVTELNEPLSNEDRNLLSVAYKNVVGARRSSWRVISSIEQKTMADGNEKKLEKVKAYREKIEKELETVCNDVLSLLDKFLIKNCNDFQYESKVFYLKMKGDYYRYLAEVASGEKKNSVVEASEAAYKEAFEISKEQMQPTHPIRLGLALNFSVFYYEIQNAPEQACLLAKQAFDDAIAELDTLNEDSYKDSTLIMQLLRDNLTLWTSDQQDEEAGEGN

[4] = target: T6, FLAG epitope-tagged PIG-2 (proliferation-inducing gene 2; gremlin 1), full length (human) (UniProt O60565); test: as above
T6 sequence: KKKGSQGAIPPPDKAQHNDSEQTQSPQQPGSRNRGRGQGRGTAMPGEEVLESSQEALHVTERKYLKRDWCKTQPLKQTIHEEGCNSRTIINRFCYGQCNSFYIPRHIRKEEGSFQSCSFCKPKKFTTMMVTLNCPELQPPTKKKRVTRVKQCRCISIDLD

B1: FLAG epitope-tagged PIG-2 (proliferation-inducing gene 2; gremlin 1), full length (protein, UniProt O60565-1 25-184)
chain: KKKGSQGAIPPPDKAQHNDSEQTQSPQQPGSRNRGRGQGRGTAMPGEEVLESSQEALHVTERKYLKRDWCKTQPLKQTIHEEGCNSRTIINRFCYGQCNSFYIPRHIRKEEGSFQSCSFCKPKKFTTMMVTLNCPELQPPTKKKRVTRVKQCRCISIDLD
- binding (GST-YWHAH (1-60) (human)): no binding
- binding [1]: binds
- binding [2]: binds
- binding (GST-YWHAH (1-80) (human)): binds
- binding [3]: binds

B2: Myc-tagged YWHAH (tyrosine 3-monooxygenase/tryptophan 5-monooxygenase activation protein, eta polypeptide; 14-3-3 eta), full length (protein, UniProt Q04917 1-246)
chain: MGDREQLLQRARLAEQAERYDDMASAMKAVTELNEPLSNEDRNLLSVAYKNVVGARRSSWRVISSIEQKTMADGNEKKLEKVKAYREKIEKELETVCNDVLSLLDKFLIKNCNDFQYESKVFYLKMKGDYYRYLAEVASGEKKNSVVEASEAAYKEAFEISKEQMQPTHPIRLGLALNFSVFYYEIQNAPEQACLLAKQAFDDAIAELDTLNEDSYKDSTLIMQLLRDNLTLWTSDQQDEEAGEGN
- binding [4]: binds

Reference: PMC1459871
